The list shows a part of the results.
Experiments:
Test in all cases: glycan array binding signal (z-score within array); higher = stronger binding
Settings in all cases: glycan notation: IUPAC condensed, linker removed
[1] = target: Glc(a1-6)Glc(a1-6)Glc(a1-6)Glc
Outline: (§1)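 Glycan array data were curated from 3228 arrays in the Consortium for Functional Glycomics database and kept only where the protein sequence was available. Glycan names were converted to IUPAC-condensed notation, and columns mapping to the same glycan were averaged. The binding signal is a within-array Z-score, averaged across arrays of the same protein sequence at different concentrations or buffers and across linkers. Negative Z-scores can be read as non-binding.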

[2] = target: Glc(a1-6)Glc(a1-6)Glc(a1-6)Glc(a1-6)Glc
Outline: as §1

[3] = target: Glc(a1-6)Glc(a1-6)Glc(a1-6)Glc(a1-6)Glc(a1-6)Glc
Outline: as §1

[4] = target: Glc(a1-6)Glc(a1-6)Glc(a1-6)Glc(a1-6)Glc(a1-6)Glc(a1-6)Glc
Outline: as §1

[5] = target: Glc(a1-6)Glc(a1-6)Glc(a1-6)Glc(a1-6)Glc(a1-6)Glc(a1-6)Glc(a1-6)Glc
Outline: as §1

[6] = target: Glc(a1-6)Glc(a1-6)Glc(a1-6)Glc(a1-6)Glc(a1-6)Glc(a1-6)Glc(a1-6)Glc(a1-6)Glc
Outline: as §1

[7] = target: Glc(a1-6)Glc(a1-6)Glc(a1-6)Glc(a1-6)Glc(a1-6)Glc(a1-6)Glc(a1-6)Glc(a1-6)Glc(a1-6)Glc
Outline: as §1

[8] = target: Glc(a1-6)Glc(a1-6)Glc(a1-6)Glc(a1-6)Glc(a1-6)Glc(a1-6)Glc(a1-6)Glc(a1-6)Glc(a1-6)Glc(a1-6)Glc
Outline: as §1

[9] = target: Glc(a1-6)Glc(a1-6)Glc(a1-6)Glc(a1-6)Glc(a1-6)Glc(a1-6)Glc(a1-6)Glc(a1-6)Glc(a1-6)Glc(a1-6)Glc(a1-6)Glc
Outline: as §1

[10] = target: Glc(a1-6)Glc(a1-6)Glc(a1-6)Glc(a1-6)Glc(a1-6)Glc(a1-6)Glc(a1-6)Glc(a1-6)Glc(a1-6)Glc(a1-6)Glc(a1-6)Glc(a1-6)Glc
Outline: as §1

Glc(b1-2)Glc = target: Glc(b1-2)Glc
Outline: as §1

Glc(b1-2)Glc(b1-2)Glc = target: Glc(b1-2)Glc(b1-2)Glc
Outline: as §1

[11] = target: Glc(b1-2)Glc(b1-2)Glc(b1-2)Glc
Outline: as §1

[12] = target: Glc(b1-2)Glc(b1-2)Glc(b1-2)Glc(b1-2)Glc
Outline: as §1

[13] = target: Glc(b1-2)Glc(b1-2)Glc(b1-2)Glc(b1-2)Glc(b1-2)Glc
Outline: as §1

[14] = target: Glc(b1-2)Glc(b1-2)Glc(b1-2)Glc(b1-2)Glc(b1-2)Glc(b1-2)Glc
Outline: as §1

[15] = target: Glc(b1-2)Glc(b1-2)Glc(b1-2)Glc(b1-2)Glc(b1-2)Glc(b1-2)Glc(b1-2)Glc
Outline: as §1

[16] = target: Glc(b1-2)Glc(b1-2)Glc(b1-2)Glc(b1-2)Glc(b1-2)Glc(b1-2)Glc(b1-2)Glc(b1-2)Glc
Outline: as §1

[17] = target: Glc(b1-2)Glc(b1-2)Glc(b1-2)Glc(b1-2)Glc(b1-2)Glc(b1-2)Glc(b1-2)Glc(b1-2)Glc(b1-2)Glc
Outline: as §1

[18] = target: Glc(b1-2)Glc(b1-2)Glc(b1-2)Glc(b1-2)Glc(b1-2)Glc(b1-2)Glc(b1-2)Glc(b1-2)Glc(b1-2)Glc(b1-2)Glc
Outline: as §1

[19] = target: Glc(b1-2)Glc(b1-2)Glc(b1-2)Glc(b1-2)Glc(b1-2)Glc(b1-2)Glc(b1-2)Glc(b1-2)Glc(b1-2)Glc(b1-2)Glc(b1-2)Glc
Outline: as §1

[20] = target: Glc(b1-2)Glc(b1-2)Glc(b1-2)Glc(b1-2)Glc(b1-2)Glc(b1-2)Glc(b1-2)Glc(b1-2)Glc(b1-2)Glc(b1-2)Glc(b1-2)Glc(b1-2)Glc
Outline: as §1

Glc(b1-3)Glc = target: Glc(b1-3)Glc
Outline: as §1

Glc(b1-3)Glc(b1-3)Glc = target: Glc(b1-3)Glc(b1-3)Glc
Outline: as §1

[21] = target: Glc(b1-3)Glc(b1-3)Glc(b1-3)Glc
Outline: as §1

[22] = target: Glc(b1-3)Glc(b1-3)Glc(b1-3)Glc(b1-3)Glc
Outline: as §1

[23] = target: Glc(b1-3)Glc(b1-3)Glc(b1-3)Glc(b1-3)Glc(b1-3)Glc
Outline: as §1

[24] = target: Glc(b1-3)Glc(b1-3)Glc(b1-3)Glc(b1-3)Glc(b1-3)Glc(b1-3)Glc
Outline: as §1

[25] = target: Glc(b1-3)Glc(b1-3)Glc(b1-3)Glc(b1-3)Glc(b1-3)Glc(b1-3)Glc(b1-3)Glc
Outline: as §1

[26] = target: Glc(b1-3)Glc(b1-3)Glc(b1-3)Glc(b1-3)Glc(b1-3)Glc(b1-3)Glc(b1-3)Glc(b1-3)Glc
Outline: as §1

[27] = target: Glc(b1-3)Glc(b1-3)Glc(b1-3)Glc(b1-3)Glc(b1-3)Glc(b1-3)Glc(b1-3)Glc(b1-3)Glc(b1-3)Glc
Outline: as §1

[28] = target: Glc(b1-3)Glc(b1-3)Glc(b1-3)Glc(b1-3)Glc(b1-3)Glc(b1-3)Glc(b1-3)Glc(b1-3)Glc(b1-3)Glc(b1-3)Glc
Outline: as §1

[29] = target: Glc(b1-3)Glc(b1-3)Glc(b1-3)Glc(b1-3)Glc(b1-3)Glc(b1-3)Glc(b1-3)Glc(b1-3)Glc(b1-3)Glc(b1-3)Glc(b1-3)Glc
Outline: as §1

[30] = target: Glc(b1-3)Glc(b1-3)Glc(b1-3)Glc(b1-3)Glc(b1-3)Glc(b1-3)Glc(b1-3)Glc(b1-3)Glc(b1-3)Glc(b1-3)Glc(b1-3)Glc(b1-3)Glc
Outline: as §1

[31] = target: Glc(b1-3)Glc(b1-3)Glc(b1-3)Glc(b1-3)Glc(b1-3)Glc(b1-3)Glc(b1-3)[Glc(b1-6)]Glc(b1-3)Glc
Outline: as §1

[32] = target: Glc(b1-3)Glc(b1-3)Glc(b1-3)Glc(b1-3)Glc(b1-3)Glc(b1-3)[Glc(b1-6)]Glc(b1-3)Glc(b1-3)Glc
Outline: as §1

[33] = target: Glc(b1-3)Glc(b1-3)Glc(b1-3)Glc(b1-3)[Glc(b1-6)]Glc(b1-3)Glc(b1-3)Glc(b1-3)Glc(b1-3)Glc
Outline: as §1

[34] = target: Glc(b1-3)Glc(b1-3)Glc(b1-3)[Glc(b1-6)]Glc(b1-3)Glc(b1-3)Glc(b1-3)Glc(b1-3)[Glc(b1-6)]Glc(b1-3)Glc
Outline: as §1

[35] = target: Glc(b1-3)Glc(b1-3)[Glc(b1-6)]Glc(b1-3)Glc(b1-3)Glc(b1-3)Glc(b1-3)Glc(b1-3)Glc(b1-3)Glc
Outline: as §1

Glc(b1-3)Glc(b1-4)Glc = target: Glc(b1-3)Glc(b1-4)Glc
Outline: as §1

[36] = target: Glc(b1-3)Glc(b1-4)Glc(b1-4)Glc
Outline: as §1

[37] = target: Glc(b1-3)Glc(b1-4)Glc(b1-6)Glc(b1-4)Glc
Outline: as §1

[38] = target: Glc(b1-3)[Glc(b1-6)]Glc(a1-3)Glc(b1-3)[Glc(b1-6)]Glc
Outline: as §1

[39] = target: Glc(b1-3)[Glc(b1-6)]Glc(b1-3)Glc(b1-3)Glc(b1-3)Glc(b1-3)Glc(b1-3)Glc(b1-3)Glc
Outline: as §1

Glc(b1-4)Glc = target: Glc(b1-4)Glc
Outline: as §1

Measured: glycan array binding signal (z-score)

B1: Dectin-1 (Mus musculus), Q6QLQ4 (protein)
chain: GHNSGRNPEEKDNFLSRNKENHKPTESSLDEKVAPSKASQTTGGFSQPCLPNWIMHGKSCYLFSFSGNSWYGSKRHCSQLGAHLLKIDNSKEFEFIESQTSSHRINAFWIGLSRNQSEGPWFWEDGSAFFPNSFQVRNTAPQESLLHNCVWIHGSEVYNQICNTSSYSICEKEL
1.33: [28]
-0.095: [23]
13.4: [30]
-0.091: [2]
5.34: [29]
-0.09: [3] | [5]
-0.101: [22]
-0.082: [4]
-0.113: [1] | [25]
-0.135: all other assays above

Reference: the supplement of paper PMC8728848
